For one molecule, Kd results are on record in patent US20180127478A1 (published 2018).

For orientation: Kd means the concentration at which binding is half-saturated.

The experiment addresses T1, shFcRn (ACROBiosystems) (human, UniProt P55899 part only; P61769 part only).
T1 construct: It was amine-coupled to a CM5 chip at 9000 RU
In words: SPR (Biacore T100), shFcRn immobilised on a CM5 chip, pH 6.0, steady-state affinity model. The text has this: A control flow cell was blocked with ethanolamine for reference subtraction.

T1 sequence (P55899 24-297 limits assumed, chain 1 of 2): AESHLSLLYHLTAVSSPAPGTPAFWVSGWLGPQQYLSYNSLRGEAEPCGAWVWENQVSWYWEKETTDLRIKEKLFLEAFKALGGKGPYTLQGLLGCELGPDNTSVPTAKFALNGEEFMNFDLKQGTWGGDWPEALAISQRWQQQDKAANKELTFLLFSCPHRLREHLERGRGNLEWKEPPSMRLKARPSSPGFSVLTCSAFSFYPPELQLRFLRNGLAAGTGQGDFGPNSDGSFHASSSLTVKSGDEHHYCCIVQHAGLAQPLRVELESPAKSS
T1 sequence (P61769 21-119 limits assumed, chain 2 of 2, further chain): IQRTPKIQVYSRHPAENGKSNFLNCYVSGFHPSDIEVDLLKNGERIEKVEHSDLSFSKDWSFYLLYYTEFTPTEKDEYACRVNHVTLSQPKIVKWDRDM

B1: hGH-sc(Fc)2 with (G4S)13 linker (Fc fusion)
chain: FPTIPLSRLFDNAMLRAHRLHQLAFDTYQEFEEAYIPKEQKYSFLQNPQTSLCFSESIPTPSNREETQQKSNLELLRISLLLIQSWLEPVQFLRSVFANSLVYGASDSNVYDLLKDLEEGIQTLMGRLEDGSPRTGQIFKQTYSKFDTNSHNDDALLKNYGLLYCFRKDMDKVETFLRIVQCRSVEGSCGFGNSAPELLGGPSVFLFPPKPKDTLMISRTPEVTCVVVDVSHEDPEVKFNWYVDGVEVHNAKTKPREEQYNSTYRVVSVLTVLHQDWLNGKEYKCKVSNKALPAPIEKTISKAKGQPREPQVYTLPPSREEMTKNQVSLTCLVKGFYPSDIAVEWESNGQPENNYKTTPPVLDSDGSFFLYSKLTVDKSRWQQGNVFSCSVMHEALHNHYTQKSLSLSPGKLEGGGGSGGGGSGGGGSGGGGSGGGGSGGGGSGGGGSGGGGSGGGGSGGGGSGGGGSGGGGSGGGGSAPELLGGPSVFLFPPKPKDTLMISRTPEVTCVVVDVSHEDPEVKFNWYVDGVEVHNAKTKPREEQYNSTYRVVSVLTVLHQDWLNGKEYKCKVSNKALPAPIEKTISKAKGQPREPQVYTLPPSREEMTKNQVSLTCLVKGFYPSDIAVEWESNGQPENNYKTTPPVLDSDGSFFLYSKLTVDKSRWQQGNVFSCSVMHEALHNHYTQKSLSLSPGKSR
modifications: N-glycosylation on the CH2 domains (HEK293 expression)
notes: The hGH-Fc junction (EcoRI cloning site) is printed as a drawing, so any extra junction residues are unknown; Produced in HEK293 cells and purified on Protein A; also called sc(Fc)2 fusion protein
B1 registered a Kd of 400 nM.
